# A collection of fitness landscapes (doi:10.1016/j.celrep.2020.107928)
# In all, about 81,000 sequences were measured (“one-hybrid fitness for binding NBS DNA”: median about -0.1, highest 2% from about 0.36 on). Some of the results follow.
# B1: Caulobacter ParB omega fusion; a variant is named by its letters at X, in order, B8GW30 (parent)
# chain: MESVVVGEPGMSEGRRGLGRGLSALLGEVDAAPAQAPGEQLGGSREAPIEILQRNPDQPRRTFREEDLEDLSNSIREKGVLQPILVRPSPDTAGEYQIVAGERAWRAAQRAGLKTVPIMVRELDDLAVLEIGIIENVQRADLNVLEEALSYKVLMEKFERTQENIAQTIGKSXSHVANXMRLLXLPDEVQSYLVSGELTAXHARAIAAAADPVALAKQIIEGGLSVRETEALARKAPNLSAGKSKGGRPPRVKDTDTQALESDLSSVLGLDVSIDHRGSTGTLTITYATLEQLDDLCNRLTRGI
# Variants of: B1
# Assay: one-hybrid fitness for binding NBS DNA (the Noc-binding site; scaled: cognate 1, non-cognate 0); higher = stronger binding
# Details: with NBS DNA site
# Outline: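 Fitness is the rescaled log change in variant-to-wild-type read ratio, measured by Illumina sequencing of plasmids before and after bacterial one-hybrid selection. The scale puts cognate at 1 and non-cognate at 0. Selection of Caulobacter ParB libraries, four specificity codons randomised, took place in E. coli USO with a HIS3 reporter, site 19 bp from the promoter, over 48 hours at 37°C on M9-minus-histidine with 0.1 mM IPTG and 5 mM 3-AT.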
row,Variant,one-hybrid fitness for binding NBS DNA
1,ACQA,≤ 0.2
2,QIAC,≤ 0.2
3,PARY,≤ 0.2
4,VQLK,≤ 0.2
5,STEG,≤ 0.2
6,FGHT,≤ 0.2
7,WCVN,≤ 0.2
8,ASYD,≤ 0.2
9,CTIC,≤ 0.2
10,MTKG,≤ 0.2
11,YLLF,≤ 0.2
12,QSHF,≤ 0.2
13,MVTT,≤ 0.2
14,DVMF,≤ 0.2
15,PHGL,≤ 0.2
16,YKDM,≤ 0.2
17,FSNF,≤ 0.2
18,YTGT,≤ 0.2
19,SAQM,≤ 0.2
20,GSYH,≤ 0.2
21,HPLE,≤ 0.2
22,QSIT,0.353
23,HSHT,≤ 0.2
